In the supplement of paper PMC3334620:
Over roughly 33,000 sequences, “E-score (-0.5 to 0.5)” has its median near -0.056; the highest 2% begin near 0.38. The list shows a part of the results.

Each sequence was assayed against Stb4 (UniProt P50104) (assay: PBM E-score (8-mer binding enrichment) (E-score (-0.5 to 0.5)); higher = stronger / more preferred TF binding; most listed sequences are background and not binding sites). Conditions: protein concentration: 200 nM; construct: GST-DNA-binding domain.
Procedure, shortened: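 Detection of bound protein used fluorescent anti-GST, with scans normalised by masliner. The proteins were GST-tagged yeast transcription factors applied at about 100-200 nM to universal all-10-mer Agilent arrays made double-stranded by primer extension. Each ungapped eight-base word, pooled with its reverse complement, was scored with an E-score from the Universal PBM Analysis Suite.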

Row | Sequence | PBM E-score
1 | CATGCGAA | -0.00765
2 | CCCTCATC | -0.0808
3 | CAGAAACA | -0.174
4 | GCAAACTA | -0.232
5 | AATCCGAT | 0.368
6 | CCAGTGTC | -0.166
7 | GGACTGAA | 0.0777
8 | ACGGAATG | 0.277
9 | AGCGGTTC | -0.0178
10 | ACACCTAA | -0.0971
11 | CTAAATGA | -0.203
12 | CCGCGGGC | 0.243
13 | AAGCCCTC | -0.11
14 | TCATAAAA | -0.0867
15 | AAAGTGGT | -0.105
16 | ACACATAC | -0.126
17 | ATCAAGCC | -0.0912
18 | CAAAACGG | 0.0905
19 | AAACCGAC | 0.185
20 | GCTCTTCC | 0.163
21 | CCTAACCG | 0.13
22 | ATCTCTGA | -0.221
23 | ATTCATCG | -0.0143
24 | ACACTGAG | -0.128
25 | CGTGCCGC | 0.0918

Row | Sequence | PBM E-score
26 | ACTTGAAG | -0.201
27 | AGAATCAT | -0.207
28 | CGGCCTTA | 0.152
29 | ACAAGTGC | -0.181
30 | CTCGAGCA | -0.0413
31 | CTTCATCC | 0.136
32 | AACACCCT | -0.129
33 | ACAGATGA | -0.0559
34 | AAACCAGA | -0.134
35 | ACGGGGAA | 0.172
36 | AGCGATGC | -0.183
37 | ATTGGTAA | -0.137
38 | GCGTGGCC | -0.0801
39 | AAGTTGAC | -0.121
40 | GGAGCAAC | 0.0986
41 | ACAGCGCT | 0.00967
42 | CATCACCC | 0.123
43 | GTGAAAAC | 0.0408
44 | AGCGAAGC | -0.147
45 | CAAAAGCA | -0.108
46 | AAATCCGG | 0.332
47 | GGGAAACC | 0.207
48 | GAACCGAA | 0.397
49 | TTAATCAA | -0.128
50 | GTACTATA | -0.0645

Row | Sequence | PBM E-score
51 | CCGAGACC | 0.431
52 | CAGGAAAC | -0.167
53 | AACTTACG | -0.0101
54 | GCTATTAC | -0.173
55 | GGTCAGTA | -0.018
56 | GGATGCCA | -0.0267
57 | GGGAATAC | 0.148
58 | CCACTTGA | -0.0304
59 | ACAGTCTA | -0.211
60 | TAGCACTA | -0.203
61 | CGGGGCTC | 0.0801
62 | AGGTAAAT | -6e-05
63 | GGTGATAA | -0.00017
64 | CGAGGGGA | 0.193
65 | CGTTAATC | 0.0955
66 | ATCCCCCG | 0.239
67 | CTAAACAA | -0.144
68 | ACCAACCT | -0.017
69 | ACGTTACT | -0.00929
70 | TCAAAGCA | -0.0262
71 | AACACAAA | -0.079
72 | CATTGTCG | -0.0389
73 | ACAGTCAA | -0.196
74 | GCGAGCTA | -0.0842
75 | AGAGTAAA | -0.14

Row | Sequence | PBM E-score
76 | GGACGCAA | 0.0215
77 | ATAGTAAC | -0.0231
78 | ATGCGTCC | -0.0349
79 | CACAGGAG | -0.128
80 | CTCGAACC | -0.123
81 | CTGTGTGC | -0.158
82 | CGCTACGA | 0.0233
83 | CGTGCCCC | -0.111
84 | TAACAGTA | -0.317
85 | ATATACAT | -0.0461
86 | CCTCCAGC | -0.218
87 | GAAACTAC | 0.0124
88 | CTTGTTCC | 0.181
89 | CATTGTAG | -0.187
90 | ACGACCTC | 0.0549
91 | AGGTATTG | -0.221
92 | GAACACTA | -0.0188
93 | ATTGTTTA | -0.117
94 | CAGGCTAG | -0.357
95 | ACGCACGA | -0.196
96 | ATAGTTCG | 0.0551
97 | CTGTGAAA | -0.0816
98 | AAATTCCT | -0.0146
99 | CGTGTCAG | 0.0424
100 | ATCGTCTG | -0.192

Row | Sequence | PBM E-score
101 | CCCGCGGG | 0.301
102 | GGACCGTA | 0.0674
103 | ACGTGCCA | -0.225
104 | GCACAGAA | -0.107
105 | CCGGAGTA | 0.362
106 | CATACCAA | -0.135
107 | CTGCGTTC | -0.129
108 | AGACGATC | -0.339
109 | ACTGGGAC | -0.191
110 | AACAACGT | -0.113
111 | GCACAGCA | -0.0896
112 | ACCGAGTC | 0.244
113 | ACCGACAG | 0.218
114 | ACTATATA | -0.0478
115 | CCCGACCC | 0.353
116 | CTGATAAA | -0.0917
117 | GATAGCCA | -0.119
118 | AGGCCCAG | -0.228
119 | CATGCTAC | -0.211
120 | GGCGGCCA | -0.146
121 | TATACTAA | -0.149
122 | ATTTACGC | -0.0126
123 | ATATTCGG | 0.399
124 | AGTTGAGA | -0.116
125 | GCTTGCTA | -0.0867

Row | Sequence | PBM E-score
126 | AAGTTTCA | -0.0705
127 | CGCACACA | -0.163
128 | GGCGCCAA | -0.16
129 | CGTCAGTC | 0.0557
130 | ATAATCAC | -0.0304
131 | TTACAAAA | -0.0358
132 | GGCCCAGA | -0.129
133 | AAGCCGAT | 0.299
134 | CCGTGCTC | 0.248
135 | CCTCGTCC | -0.106
136 | ATATGTTC | 0.138
137 | GGTATGAC | 0.0721
138 | CCTCTGAA | -0.00793
139 | AGGTCATA | -0.21
140 | ACATAAAT | -0.06
141 | CAGTCGAG | -0.215
142 | GGACTAAC | -0.0138
143 | AAAGAATG | -0.0925
144 | AACCTCCT | -0.187
145 | GACCTGGA | -0.196
146 | AGCCTAAC | -0.122
147 | AGTGGCCC | -0.0336
148 | CAATCCGA | 0.403
149 | GCCCCACC | 0.13
150 | CCCCGGGA | 0.307

Row | Sequence | PBM E-score
151 | AGAAGATC | 0.119
152 | AAACCACC | 0.0162
153 | CCTGCGGC | -0.0384
154 | ACTACCCA | -0.261
155 | AGCAACAT | -0.132
156 | CCGAGCTC | 0.435
157 | CCAGTGCA | -0.303
158 | CCTTCTTA | -0.143
159 | GGCAGCCA | -0.125
160 | ATAAGATC | -0.141
161 | CACAACCG | 0.203
162 | CAGATCCC | 0.00572
163 | CTACTTGA | -0.164
164 | ATGTGGAC | -0.164
165 | ATGGACGA | -0.00649
166 | GCTCTAGA | -0.123
167 | ACCAAAAC | -0.146
168 | TAACACTA | -0.149
169 | ACCGGGAG | 0.251
170 | ATGTCTCC | 0.133
171 | AGGACCGG | 0.138
172 | GGACCGGA | 0.346
173 | CGTGAAGA | -0.0749
174 | CTGGACGC | -0.278
175 | GAATATCA | 0.102

Row | Sequence | PBM E-score
176 | CGCCAAAA | 0.0493
177 | ACTTCGAC | -0.0532
178 | CATGCTGG | -0.347
179 | ATCCAAGA | 0.00699
180 | CTCTGATC | -0.162
181 | GTGGAATA | 0.0247
182 | ACTCCGCG | 0.214
183 | GACGAGCA | -0.146
184 | ACGACAGA | -0.291
185 | TGAGATAA | 0.0542
186 | TCGACCAA | -0.31
187 | GTGGCGTA | -0.0497
188 | TATTCCAA | -0.113
189 | CTGTTACC | -0.0187
190 | GCGTAGAC | -0.209
191 | ATGTTGTG | -0.143
192 | ACCGGCGC | 0.11
193 | ACCGCCAA | -0.106
194 | AGGAACTG | -0.148
195 | CATTCTTA | -0.0548
196 | ACATTCCG | 0.365
197 | GACGGCGA | -0.0984
198 | AACGAAGT | -0.352
199 | AAGCGAAA | -0.0461
200 | ACCGTGGC | -0.171

Row | Sequence | PBM E-score
201 | ATGATGAC | -0.113
202 | AATCAAAG | -0.147
203 | CAGGGCTA | -0.198
204 | AACACATG | -0.303
205 | CTCAGCAA | -0.138
206 | AATTAAAG | 0.00931
207 | AGTCTATA | -0.333
208 | CCACTGTC | -0.147
209 | AGTTAAAG | -0.175
210 | TGCTAGCA | 0.0512
211 | GCACACTA | -0.0748
212 | CGCTTCTA | -0.253
213 | CCCGAAGG | 0.394
214 | GCGTTTAA | -0.0915
215 | CCGCCTTC | 0.0653
216 | AAGTGCGA | -0.0645
217 | CCAGGAAA | -0.0736
218 | AGAACGCG | 0.0553
219 | CGCGCGAA | 0.0365
